The assay has as its system NCI-H322M. Put plainly: cells. Particulars: 48 h. The protocol: The National Cancer Institute's Developmental Therapeutic preclinical 60 human cancer cell lines were used for an in vitro screen. […] The one-dose and five-dose experiments were conducted according to standard NCI protocols.
The human tumor cell lines of the cancer screening panel are grown in RPMI 1640 medium containing 5% fetal bovine serum and 2 mM L-glutamine. For a typical screening experiment, cells are inoculated into 96 well microtiter plates in 100 μL at plating densities ranging from 5,000 to 40,000 cells/well depending on the doubling time of individual cell lines. After cell inoculation, the microtiter plates are incubated at 37° C., 5% CO2, 95% air and 100% relative humidity for 24 h prior to addition of experimental drugs.
After 24 h, two plates of each cell line are fixed in situ with TCA, to represent a measurement of the cell population for each cell line at the time of drug addition (Tz). […]
Following drug addition, the plates are incubated for an additional 48 h at 37° C., 5% CO2, 95% air, and 100% relative humidity. […] Bound stain is subsequently solubilized with 10 mM trizma base, and the absorbance is read on an automated plate reader at a wavelength of 515 nm. […] Using the seven absorbance measurements [time zero, (Tz), control growth, (C), and test growth in the presence of drug at the five concentration levels (Ti)], the percentage growth is calculated at each of the drug concentrations levels. Percentage growth inhibition is calculated as: [(Ti−Tz)/(C−Tz)]×100 for concentrations for which Ti>/=Tz [(Ti−Tz)/Tz]×100 for concentrations for which Ti<Tz.
Three dose response parameters are calculated for each experimental agent. […] The drug concentration resulting in total growth inhibition (TGI) is calculated from Ti=Tz. […] Values are calculated for each of these three parameters if the level of activity is reached; however, if the effect is not reached or is exceeded, the value for that parameter is expressed as greater or less than the maximum or minimum concentration tested.

The text below walks through data of patent publication US11814392B2, “Chromenopyridine-based compounds and methods of making and use thereof” (Rosalind Franklin University of Medicine and Science, priority 2020, dated 2023).

By GI50 is commonly meant the concentration giving 50% growth inhibition. Usually TGI stands for the concentration giving total growth inhibition. Read a low TGI as greater sensitivity of the cells. Under “Homo sapiens, NCI-H322M”, `COc1ccc(SC2c3cc(OC)c(OC)cc3Oc3nc(N)c(C#N)c(N)c32)cc1` (stereo not drawn) [Compound 1, 2,4-diamino-7,8-dimethoxy-5-((4-methoxyphenyl)thio)-5H-chromeno[2,3-b]pyridine-3-carbonitrile] came in with a GI50 of 1550 nM. For the same compound, the CC50 (Homo sapiens, NCI-H322M, read-out: LC50) was 5570 nM. The TGI (NCI-H322M (Non-small cell Lung), five-dose) came to 2940 nM.
